Test results published in PubChem BioAssay AID1030 (National Center for Advancing Translational Sciences (NCATS), 2008).
In all, about 220,000 compounds went through this assay and about 16,000 (7.3%) were called active. Inconclusive means that the source gave no clear call. Such entries were picked first, then a sample of the others. The call rests on the fitted dose curve; in most records, active means well fitted inhibition curve with a large enough effect (not every such curve was filed as active); inconclusive means small, poorly fitted or top-dose-only effect, or another doubt; inactive means no such curve, though single readings can be large or run the other way. Potencies of inconclusive entries are left out as doubtful fits.

Molecular target: Aldehyde dehydrogenase 1A1 (Homo sapiens) (UniProt P00352)
Chain of UniProt P00352 (P00352 whole entry, looked up): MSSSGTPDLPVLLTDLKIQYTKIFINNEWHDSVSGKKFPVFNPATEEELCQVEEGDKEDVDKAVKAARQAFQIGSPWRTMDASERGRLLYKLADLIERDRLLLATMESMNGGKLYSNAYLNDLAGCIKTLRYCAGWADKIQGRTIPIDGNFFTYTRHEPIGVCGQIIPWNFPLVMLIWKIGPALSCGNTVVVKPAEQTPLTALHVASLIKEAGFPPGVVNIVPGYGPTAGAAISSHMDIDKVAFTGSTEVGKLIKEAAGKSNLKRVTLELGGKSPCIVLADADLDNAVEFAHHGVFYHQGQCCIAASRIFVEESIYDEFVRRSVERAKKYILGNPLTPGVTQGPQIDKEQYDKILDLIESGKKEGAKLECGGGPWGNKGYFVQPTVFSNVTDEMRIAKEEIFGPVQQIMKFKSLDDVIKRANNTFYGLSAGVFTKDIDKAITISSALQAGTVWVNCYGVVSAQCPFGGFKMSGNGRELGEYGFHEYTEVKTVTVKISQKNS
Experiment: qHTS Assay for Inhibitors of Aldehyde Dehydrogenase 1 (ALDH1A1);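 on activity, negative = inhibition: plate controls were no enzyme wells and a reference inhibitor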
Conditions: Purified ALDH1A1, NADH fluorescence, propionaldehyde substrate; series mostly up to 75.3 µM; activity, negative = inhibition: at the top concentration
Potency means the concentration at half of the fitted maximal effect; tags describe the fitted curve by direction and shape.

| SMILES | Potency | activity, negative = inhibition |
| --- | --- | --- |
| COC(=O)c1c(NC(=O)c2c(Cl)cnn2C)sc(C)c1C | inconclusive [inhibitor, partial curve] |  |
| O=C(CN1C(=O)S/C(=C/C=C/c2ccccc2)C1=O)Nc1ccc(C(=O)O)cc1 |  | inactive: -6.72% |
| O=C(COC(=O)c1cc(S(=O)(=O)NCc2ccccc2)ccc1O)NCc1ccccc1 | inconclusive [inhibitor, single point] |  |
| CC(=O)Nc1ccc(CN2CCCCCCC2)cc1 | inconclusive [inhibitor, partial curve] |  |
| CCn1c(=O)cc(OCC(=O)Nc2ccc3c(c2)OCCO3)c2ccccc21 | inconclusive [inhibitor, partial curve] |  |
| CN1CCN(c2ncc3nc(-c4cn(C)c5ccccc45)c(=O)n(C[C@H]4CCCO4)c3n2)CC1 | inconclusive [inhibitor, single point] |  |
| Cc1cnc(CNc2ncnc3ccc(-c4ccccc4C)cc23)cn1 |  | inactive: -2.08% |
| O=c1c2ccccc2nc(SCc2cc([N+](=O)[O-])cc3c2OCOC3)n1-c1ccccc1 |  | inactive: 7.02% |
| COc1ccc(C(CNC(=O)c2ccc(S(=O)(=O)N(C)C)cc2)N2CCCCC2)cc1 (stereo unspecified) | active: 10 µM |  |
| Cc1cc(=O)[nH]c(N/N=C/c2c(O)n(-c3ccccc3)c(=O)c3ccccc23)n1 | inconclusive [inhibitor, partial curve] |  |
| CCc1ccc(NC(=O)N(CCCOC(C)C)C2CCN(C(C)=O)CC2)cc1 | inconclusive [inhibitor, single point] |  |
| O=C(/C=C/c1ccc(OC(F)F)cc1)OCC(=O)N1CCN(C(=O)c2ccco2)CC1 | active: 17.8 µM |  |
| CC(C)CCNC(=O)CN(C(=O)Cn1nnc(-c2ccc(F)cc2)n1)C1CCCC1 | inconclusive [inhibitor, single point] |  |
| COc1cc(/C=C2\C(=O)NN(c3ccccc3)C2=O)cc([N+](=O)[O-])c1O | inconclusive [inhibitor, single point] |  |
| CCOC(=O)c1c(C)cc(O)c(C=O)c1O |  | inactive: -13.5% |
| Cc1sc2ncn(CC(=O)NCc3ccco3)c(=O)c2c1-c1ccccc1 |  | inactive: 3.8% |
| COc1ccccc1N(CC(=O)Nc1cc(C)on1)S(=O)(=O)c1ccc(Cl)cc1 |  | inactive: 1.23% |
| Cc1cccc(NCc2nc(-c3ccccc3)no2)c1 | inconclusive [inhibitor, single point] |  |
| CCN(CCCNC(=O)CCCN1C(=O)COc2ccc(C)cc21)c1cccc(C)c1 |  | inactive: -3.81% |
| CCC(=O)Nc1cc2[nH]c(=O)cc(C)c2cc1C | inconclusive [inhibitor, single point] |  |
| CN1C2C=C(N(CCc3c[nH]c4ccccc34)C(=O)c3ccc(Cl)cc3)CC1CC2 (stereo unspecified) |  | inactive: 1.25% |
| COc1ccc(-c2cnnn2-c2ccc(NC(=O)c3ccc(S(=O)(=O)N4CCCCC4)cc3)cc2)cc1OC | inconclusive [inhibitor, full curve] |  |
| O=c1cc[nH]c2cccc(Cc3ccccc3)c12 |  | inactive: -6.05% |

| SMILES | Potency | activity, negative = inhibition |
| --- | --- | --- |
| CCOC(=O)N1CCC(NC(=O)Cn2c3ccccc3c3cn[nH]c(=O)c32)CC1 | inconclusive [inhibitor, partial curve] |  |
| COc1ccc(C2/C(=C(/O)c3ccccc3)C(=O)C(=O)N2CC(C)O)c(OC)c1 (stereo unspecified) | inconclusive [inhibitor, single point] |  |
| COc1ccc(NC(=S)Nc2cccc(Cl)c2)cc1OC | inconclusive [inhibitor, single point] |  |
| CC(=O)c1cc2c(cc1NC(=O)CSc1nc3ccccc3o1)OCO2 | inconclusive [inhibitor, single point] |  |
| CC1(C)CC(=O)C(C2(O)C(=O)Nc3ccccc32)CO1 (stereo unspecified) | inconclusive [inhibitor, single point] |  |
| O=C(O)[C@H](Cc1ccccc1)N1C(=O)c2ccncc2C1=O | inconclusive [inhibitor, single point] |  |
| CN(CC(=O)Nc1ccc(F)cc1)CC(=O)Nc1ccc(F)c(F)c1F |  | inactive: 3.47% |
| CCOC(=O)C1(C)C=C(Nc2ccc(O)cc2)C(=O)N1c1ccc(O)cc1 (stereo unspecified) | active: 3.55 µM |  |
| Cc1nc2ccccn2c1C(=O)NCc1cccnc1 |  | inactive: 2.3% |
| COc1ccc(/C=C2\N=C3CCCCCN3C2=O)cc1OC | active: 14.1 µM |  |
| O=C(O)CSC1CC(=O)N(c2ccc(Cl)cc2)C1=O (stereo unspecified) | inconclusive [inhibitor, single point] |  |
| Cc1ccc(CNC(=O)Cn2ccc3ccccc3c2=O)o1 | inconclusive [inhibitor, single point] |  |
| Nc1ccnn1Cc1ccncc1 |  | inactive: 0.268% |
| CCOC(=O)C1=C(N)n2c(s/c(=C\c3ccco3)c2=O)=C(C(=O)OCC)C1c1ccco1 (stereo unspecified) | inconclusive [inhibitor, single point] |  |
| CCn1c(CSc2nc3ccccc3s2)nnc1SCC(=O)c1ccc(O)c(O)c1 |  | inactive: -14% |
| CCn1cc(Cl)c(C(=O)N2N=C3/C(=C/c4cccs4)CCCC3C2c2cccs2)n1 (stereo unspecified) | inconclusive [inhibitor, single point] |  |
| Cc1ccc(NS(=O)(=O)c2ccc(N3C(=O)CCC3=O)cc2)cc1 | inconclusive [inhibitor, single point] |  |
| Cn1c2ccccc2c2c(C(=O)NCC3CCCO3)cn(C3CCCC3)c(=O)c21 (stereo unspecified) | inconclusive [inhibitor, partial curve] |  |
| Cc1ccc(C)c(C2C(C#N)=C(N)Oc3cc(C)oc(=O)c32)c1 (stereo unspecified) |  | inactive: -13.8% |
| Cc1ccc2nc3n(c(=O)c2c1)CCCCC3 | inconclusive [inhibitor, partial curve] |  |
| O=C1CC(c2ccco2)CC(O)=C1C=Nc1ccc(Br)cc1 (stereo unspecified) | inconclusive [inhibitor, single point] |  |
| COc1cccc2c(=O)cn[nH]c12 | inconclusive [inhibitor, partial curve] |  |
| COc1ccc(C2=NN(c3nc(-c4ccccc4)c(CC(=O)O)s3)C(c3ccco3)C2)cc1 (stereo unspecified) | inconclusive [inhibitor, partial curve] |  |
